This is one part of the list.

The target in this test is T1, OsWOX13 (Oryza sativa, UniProt Q5QMM3 1-267).
T1 sequence: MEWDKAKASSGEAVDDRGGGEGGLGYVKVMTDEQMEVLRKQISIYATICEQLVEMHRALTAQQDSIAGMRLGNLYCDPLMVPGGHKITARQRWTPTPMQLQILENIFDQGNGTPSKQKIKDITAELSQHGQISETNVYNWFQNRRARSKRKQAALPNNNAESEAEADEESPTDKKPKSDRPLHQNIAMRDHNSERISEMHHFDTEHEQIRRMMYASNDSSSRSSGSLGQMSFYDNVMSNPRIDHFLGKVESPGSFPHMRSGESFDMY
Description: protein-binding microarray (RPBM); PBS, 2% BSA, 51.3 ng/ul salmon testes DNA, 50 uM zinc acetate, 200 nM TF, 25 C, 1 h; high values mean tight binding. As to conditions: protein: recombinant; tags: N-terminal polyhistidine and DsRed monomer fusion (pET32a); label: CyDye5-dUTP incorporated in the synthesized complementary strand; 3' TTTTT single-stranded linker to array surface; dsDNA, one strand shown. Summed up: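 Ni–NTA purification followed expression in E. coli BL21-CodonPlus of transcription factors fused N-terminally to a polyhistidine tag and DsRed. At 200 nM in PBS with 2% BSA, salmon testes DNA and 50 µM zinc acetate, the protein was incubated for 1 h at 25 °C with a custom Agilent array that had been primer-extended with Cy5-dUTP and blocked with 2% BSA. After washing, the array was read on an Axon 4000B scanner. The binding signal is per-feature fluorescence intensity in arbitrary units.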
On to “CCTATAATTGAGGCAGATTAAGAACAATAGCACTTGTACACGGAGTCACCTAGTGCAG”, for which the binding signal is 29900 fluorescence intensity (a.u.). Regarding “AAAAGATTAAATTAATCCAATCGAGCTAGCTAAGCAGGTCCGGAGTCACCTAGTGCAG”, the binding signal is 17700 fluorescence intensity (a.u.). Regarding “ATCAATTCAAATTTAAATTTTGATGAAACTCTTCGAAATCCGGAGTCACCTAGTGCAG”, the binding signal is 14400 fluorescence intensity (a.u.). Turning to “GATGTTGACTGGTGTGTACTGTTTGTTGTGGTGGCTGCAGCGGAGTCACCTAGTGCAG”, the binding signal was 13400 fluorescence intensity (a.u.).

For “ACTAATGGATATCCAATGAGAAGAGGGAGTACATACACTGCGGAGTCACCTAGTGCAG”, the binding signal is 12600 fluorescence intensity (a.u.). Take “GTCTAATTAATCTCTAGCTAGCTTAGAATTAGATAAGCTTCGGAGTCACCTAGTGCAG”: the binding signal was 23500 fluorescence intensity (a.u.). Regarding “AGGGTTATAATTAGATGGGTAGTGGAGGTAGGTAAGAAAACGGAGTCACCTAGTGCAG”, the binding signal was 6030 fluorescence intensity (a.u.).

As for “ACAAAATCATTTGTACGATGATATTTTATTAAACTTGCACCGGAGTCACCTAGTGCAG”, the binding signal was 7050 fluorescence intensity (a.u.).

Take “CTTACTAAATTGCAATATGCACTGGCGGCGTCGTCAGCACCGGAGTCACCTAGTGCAG”: the binding signal is 9000 fluorescence intensity (a.u.). Take “CATCTGGTGTCAATTAATTAGATCCAGAGAAAAGGAGAGGCGGAGTCACCTAGTGCAG”: the binding signal is 18500 fluorescence intensity (a.u.). Regarding “GTTAAAGATTGGATTCCTGAAGGAGGATATAGCACCAACCCGGAGTCACCTAGTGCAG”, the binding signal is 6190 fluorescence intensity (a.u.). On to “TTGCTGGAGCGGATTTGATTGGAAGTTCCCAAGTCGAGGTCGGAGTCACCTAGTGCAG”, for which the binding signal is 7820 fluorescence intensity (a.u.). Consider “GCTGATTAGGCGCTGGTGTGCTGCCTGAGAGCTTAGACCACGGAGTCACCTAGTGCAG”, for which the binding signal was 20600 fluorescence intensity (a.u.). For the sequence “AGCCATTAGCTCATGATTAATTGAGTATTAACTATTTTAACGGAGTCACCTAGTGCAG”, the binding signal was 8400 fluorescence intensity (a.u.). Under “CCGATGATGATATGAAACAGACGATCGCGGTTCTTGGCTACGGAGTCACCTAGTGCAG” stands 9240 fluorescence intensity (a.u.); under “CAAGTTGATTTCTATGATATGTGCCAAGTAGTCGAGAGCCCGGAGTCACCTAGTGCAG”, 13900 fluorescence intensity (a.u.); under “ATGTGATTAAATGGAGGGTTTTCGGGGAGGGTTTTCGGGGCGGAGTCACCTAGTGCAG”, 23100 fluorescence intensity (a.u.). As for “AGGAAAATGACGGCACTCATTGACGATAAATTAACTTGTGCGGAGTCACCTAGTGCAG”, the binding signal is 7260 fluorescence intensity (a.u.). Turning to “CCTCTGCAATAACTATGATCATTGATAAGCTGCTGAACAGCGGAGTCACCTAGTGCAG”, the binding signal was 3780 fluorescence intensity (a.u.). In the case of “CAAGTGTGGATTTGATTTATTAATTAGTCTCTTTCTGTCGCGGAGTCACCTAGTGCAG” it was 9210 fluorescence intensity (a.u.); in that of “GGCCCATATAAATTAAATATTATTTGCATAGTCAAAGCCGCGGAGTCACCTAGTGCAG”, 4700 fluorescence intensity (a.u.); in that of “TTGTGATTATTATTTTCGGGATTGCTATCTGTCATTCGAACGGAGTCACCTAGTGCAG”, 29100 fluorescence intensity (a.u.). “GTTCATTAAATCTATAATTGAATATATTTCATAATATATTCGGAGTCACCTAGTGCAG”: the binding signal is 4610 fluorescence intensity (a.u.). As for “AGTCTATCTTTAATTAGATAAAGTAGTCTATTAGCTACGTCGGAGTCACCTAGTGCAG”, the binding signal was 8670 fluorescence intensity (a.u.). In the case of “CCAGGATTGTCATGAAATTGCTAATTAACGACTAGTTGTGCGGAGTCACCTAGTGCAG”, the binding signal is 41900 fluorescence intensity (a.u.). In the case of “TGCTAAATGACACTTTCGGCTCAATTGAAAAGAAAAGTTCCGGAGTCACCTAGTGCAG” it was 5830 fluorescence intensity (a.u.); in that of “TTATCTATTAATTGGTTTTGCTGCCCTTGCAACATTATATCGGAGTCACCTAGTGCAG”, 17200 fluorescence intensity (a.u.). For the sequence “AAACTGATTGACGGTTTTCTTTCTAAAACTGATTTTCAGGCGGAGTCACCTAGTGCAG”, the binding signal is 43200 fluorescence intensity (a.u.). On to “ATGATTGATCGATCATCAAGCTAAAGATAATGCTATGCAACGGAGTCACCTAGTGCAG”, for which the binding signal was 55100 fluorescence intensity (a.u.). Regarding “TCACAAAATAATTAACTTTAAAATTAAATTTTAGCAGCAGCGGAGTCACCTAGTGCAG”, the binding signal was 15100 fluorescence intensity (a.u.). For “TCTGATAATTGTTCCATAATCCTGTGTCTGAATACACTTGCGGAGTCACCTAGTGCAG”, the binding signal is 31000 fluorescence intensity (a.u.). Regarding “GAAGTTATGTGTGATTTGTTATATATCCGTTGGCGTAACACGGAGTCACCTAGTGCAG”, the binding signal is 4460 fluorescence intensity (a.u.). Regarding “TTTGATTAATTCAGTGCTTCCTTCCCGTTACATTACACTGCGGAGTCACCTAGTGCAG”, the binding signal was 54000 fluorescence intensity (a.u.). Consider “ATCTAGATATATATATTAAATTAACATCATTATAAACGTGCGGAGTCACCTAGTGCAG”, for which the binding signal was 6350 fluorescence intensity (a.u.). As to “GCCCCTAATAGACGAATTCCGAGTCCGGTGTGACCGGCGTCGGAGTCACCTAGTGCAG”, the binding signal was 9630 fluorescence intensity (a.u.).

Take “GAATCATTCTGCCAATTAAGCAACACAATCATGGAGGACACGGAGTCACCTAGTGCAG”: the binding signal was 11800 fluorescence intensity (a.u.). In the case of “TAATTAAATAGAAGCATGAATTGCTTCTCATGTTTGCTCGCGGAGTCACCTAGTGCAG”, the binding signal is 3620 fluorescence intensity (a.u.). On to “CCCAAAGTGATTATAAATTTGCACCCATCTATTGGCACATCGGAGTCACCTAGTGCAG”, for which the binding signal was 37300 fluorescence intensity (a.u.). “GGTTGACTGATCGCAATAACATGAGTGCTTTGATTCATCACGGAGTCACCTAGTGCAG”: the binding signal was 27900 fluorescence intensity (a.u.).

Regarding “GATGATTTTGGGTTCACGAGGCATAGCATTTCTAGTTCACCGGAGTCACCTAGTGCAG”, the binding signal was 10400 fluorescence intensity (a.u.). In the case of “ACCAATAATTAACCGGATAGCCATAAAAGCTCACACACTTCGGAGTCACCTAGTGCAG”, the binding signal was 13900 fluorescence intensity (a.u.). In the case of “AAATATAGATAGATTGGTAGGTAGACTCTGAGAGTCAGATCGGAGTCACCTAGTGCAG”, the binding signal was 38000 fluorescence intensity (a.u.).

These data come from publication PMC7819943, “Rice protein-binding microarrays: a tool to detect cis-acting elements near promoter regions in rice”.
